This is an account of results in PubChem BioAssay AID1508642 (National Center for Advancing Translational Sciences (NCATS), 2021).

The structures appear in SMILES notation. In all, about 43,000 compounds went through this assay and about 200 (0.47%) were called active. About 12% were inconclusive and are not listed. The call rests on the fitted dose curve; in most records, active means well fitted cell-killing curve with a large enough effect; inconclusive means small, poorly fitted or top-dose-only effect, or effect the other way; inactive means flat fitted curve, though single readings scatter. Some of the results follow.
On the % scale 0 is the no-effect control and ±100 the full control effect.

This test in a line: Cell viability qHTS assay in S16 Pmp22-F2sN cells. Further: nearly all actives have a fitted effect of over 65% in size. The conditions noted are these: S16 Pmp22-F2sN Schwann cells viability, CellTiter-Glo, 24 h; series mostly up to 57.5 µM; activity change, negative = cytotoxicity: at the top concentration. The essentials:
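S16 Pmp22-F2sN Schwann cells (500-1,000/well) in phenol-red-free DMEM with 10% FBS received 23 nL compound by pin tool for 24 h at 37 °C. Viability was then read as CellTiter-Glo luminescence after 15 min at room temperature.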
For orientation: In qHTS, concentration-response curves come from the screen itself.
As for `CCC(C)NC(=O)CSc1nc2n[nH]c(C)c2c(=N)n1-c1ccc(C)c(Cl)c1` (stereo unspecified), the “activity change, negative = cytotoxicity” value was inactive: -4.97%.
Take `CCc1nn2c(=O)cc(COC(=O)c3ccccc3NC(=O)C3CCCCC3)nc2s1`: the “activity change, negative = cytotoxicity” value was inactive: 14.3%.
Next, `CCc1ccccc1NC(=O)CCc1c(C)nn(-c2ccc(N3CCOCC3)nn2)c1C`: inactive: -1.6%; `O=C(c1ccc(F)cc1)n1nc(-c2ccccc2)nc1NCc1ccc(F)cc1`: inactive: 18.4%.
Turning to `CCc1ccc(CNCc2c(C(=O)O)n(Cc3ccc(F)cc3Cl)c3cc(OC)ccc23)cc1`, the “activity change, negative = cytotoxicity” value was inactive: -0.079%.
Next, `CCOC(=O)c1c(SCC(=O)Nc2cc(Cl)cc(Cl)c2)nc(=O)[nH]c1C`: inactive: 2.82%.
Next, `COc1cc(CCC(=O)NCc2ccc3c(c2)CCN3C(=O)c2ccc(F)cc2)cc(OC)c1OC`: inactive: 0.76%; `Cc1ccc2nc(NCc3ccc(F)cc3)c3nncn3c2c1`: inactive: -19.3%.
Next, `Cc1nc(-c2ccc(S(=O)(=O)NCc3ccc(N(C)C)cc3)cc2)co1`: inactive: -1.96%.
As to `Cc1cccc(-n2ncc3c(N4CCN(c5ccccc5)CC4)ncnc32)c1`, the “activity change, negative = cytotoxicity” value was inactive: -1.27%.
Next, `CCN(CC)c1ccc(NC(=O)Cn2nc(C)n3cccc3c2=O)c(C)c1`: inactive: -2.43%; `CCCCNC(=O)C1CCC(CNS(=O)(=O)c2ccc(NC(C)=O)cc2)CC1` (stereo unspecified): inactive: 0.887%; `COc1ccc(-c2nc3c(c(SCC(=O)N(C)c4ccccc4)n2)Cc2cc(C)ccc2O3)cc1`: inactive: 11.4%.
Next, `COc1ccc2ncc3c(-c4ccc(C)c(C)c4)nn(CC(=O)NC4CCCC4)c3c2c1`: inactive: -13.7%.
Next, `O=C(Nc1cccc(C(=O)OCc2cc(=O)n3c4c(sc3n2)CCCC4)c1)c1ccccc1`: inactive: -4.24%; `Cc1cccc(NC(=O)C(NS(=O)(=O)c2ccc3c(c2)oc(=O)n3C)C(C)C)c1` (stereo unspecified): inactive: 1.95%; `O=c1c(S(=O)(=O)c2cccc(Cl)c2)cn(Cc2ccccc2)c2cc(N3CCOCC3)c(F)cc12`: inactive: -1.75%.
For the compound `CC(C)c1ccc(OCC(=O)N(Cc2ccc(N(C)C)cc2)C2CCS(=O)(=O)C2)cc1` (stereo unspecified), the “activity change, negative = cytotoxicity” value was inactive: -10.5%.
Next, `CCc1ccc(NC(=O)Cn2c(=O)n(Cc3ccco3)c(=O)c3cccnc32)cc1`: inactive: -1.03%; `CCCNC(=O)CCSc1nc(-c2ccc3c(c2)OCO3)cc(C(F)(F)F)n1`: inactive: 13.7%.
Next, `Cc1cc(C)c2nc(N(Cc3cccnc3)C(=O)CCOc3ccccc3)sc2c1`: inactive: 3.6%; `Cc1ccc2nc(-c3cccnc3)c(Nc3ccccc3C)n2c1`: inactive: -12.8%.
Next, `Cc1ccc(C2c3[nH]c4ccccc4c3CCN2C(=O)CCC2CCCC2)cc1` (stereo unspecified): inactive: -0.126%; `COc1ccc(NC(=O)CCc2nnc3n(CC(C)C)c(=O)c4ccccc4n23)cc1`: inactive: 8.01%.
As for `Cc1ccc(-n2nc(C(=O)N3CCN(c4cc(Cl)ccc4C)CC3)c3c4ccccc4n(C)c3c2=O)cc1`, the “activity change, negative = cytotoxicity” value was inactive: -5.86%.
Next, `O=C(c1ccc(CSc2nc3ccncc3n2Cc2ccccc2)cc1)N1CCCCCC1`: inactive: -26.3%.
